Measurements from the supplement of paper PMC4967469.

Legend:
Test in all cases: Viability of human cancer cell lines after 72 h of drug (GDSC screen)
[1] = compound: CC(=O)O[C@@]12CO[C@@H]1C[C@H](O)[C@@]1(C)C(=O)[C@H](O)C3=C(C)[C@@H](OC(=O)[C@H](O)[C@@H](NC(=O)OC(C)(C)C)c4ccccc4)C[C@@](O)([C@@H](OC(=O)c4ccccc4)[C@H]21)C3(C)C [Docetaxel]; details: top dose 0.0125 µM
Experimental: (§1)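 Human cancer cell lines in 384-well plates, medium with 10% serum, drug for 72 h over a 256-fold dose range (nine 2-fold or five 4-fold steps up to the top dose). Adherent lines were fixed and stained with the nucleic acid dye Syto60, suspension lines read with resazurin; signal relative to control wells, capped at 0 and 100%. One two-parameter sigmoid per drug and line, fitted in a mixed model over all curves with the slope shared within a line.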

[2] = compound: Cc1sc2c(c1C)C(c1ccc(Cl)cc1)=N[C@@H](CC(=O)OC(C)(C)C)c1nnc(C)n1-2 [JQ1]
Experimental: as §1

[3] = compound: O=C(/C=C/c1cccc(S(=O)(=O)Nc2ccccc2)c1)NO [Belinostat]; details: top dose 20 µM; top dose inferred
Experimental: as §1

[4] = compound: Cc1ccc(C(=O)N(CCCN)[C@@H](c2nc3cc(Cl)ccc3c(=O)n2Cc2ccccc2)C(C)C)cc1 [SB-715992]; details: top dose 0.128 µM; top dose inferred
Experimental: as §1

[5] = compound: c1ccc2c(CCNc3ccc(Nc4ccncc4)cc3)c[nH]c2c1 [JNJ-26854165]; details: top dose 10 µM
Experimental: as §1

[6] = compound: CC1(C)CNc2cc(NC(=O)c3cccnc3NCc3ccncc3)ccc21 [AMG-706]; details: top dose 2 µM; top dose inferred
Experimental: as §1

[7] = compound: CN1CCN(c2ccc([N+](=O)[O-])c3no[n+]([O-])c23)CC1 [NSC-207895]; details: top dose 20 µM; top dose inferred
Experimental: as §1

[8] = compound: CCOc1nc(NC(=O)Cc2cc(OC)ccc2OC)cc(N)c1C#N [JNK Inhibitor VIII]; details: top dose 10 µM; top dose inferred
Experimental: as §1

[9] = compound: COC(=O)[C@H](CCSC)NC(=O)c1ccc(NC[C@@H](N)CS)cc1-c1ccccc1 [FTI-277]; details: top dose 1.024 µM; top dose inferred
Experimental: as §1

[10] = compound: COCC[n+]1c2c(n(Cc3cnccn3)c1C)C(=O)c1ccccc1C2=O [YM155]; details: top dose 5.12 µM
Experimental: as §1

[11] = compound: C[C@]1(O)C[C@@H](c2nc(-c3ccc4ccc(-c5ccccc5)nc4c3)c3c(N)nccn32)C1 [OSI-906]; details: top dose 2.56 µM; top dose inferred
Experimental: as §1

[12] = top dose 1 µM, screen: GDSC drug entry 1218, top dose inferred
[13] = top dose 2.56 µM, screen: GDSC drug entry 163

Row | Cell Line | AUC [1] | pIC50 [1] | AUC [2, 12] | pIC50 [2, 12] | AUC [2, 13] | pIC50 [2, 13] | AUC [3] | pIC50 [3] | AUC [4] | pIC50 [4] | AUC [5] | pIC50 [5] | AUC [6] | pIC50 [6] | AUC [7] | pIC50 [7] | AUC [8] | pIC50 [8] | AUC [9] | pIC50 [9] | AUC [10] | pIC50 [10] | AUC [11] | pIC50 [11]
1 | CAL-51 (breast, adherent) | 0.741 | 8.47 | 0.978 | < 6.00 | 0.92 | < 5.59 | 0.914 | < 4.70 | 0.988 | < 6.89 | 0.897 | 5.02 | 0.991 | < 5.70 | 0.982 | < 4.70 | 0.991 | < 5.00 | 0.989 | < 5.99 | 0.447 | 6.63 | 0.986 | < 5.59
2 | CAL-62 (thyroid, adherent) | 0.458 | 9.22 | 0.942 | < 6.00 | 0.564 | 6.62 | 0.413 | 6.14 | 0.793 | 7.26 | 0.984 | < 5.00 | 0.98 | < 5.70 | 0.855 | 4.83 | 0.988 | < 5.00 | 0.938 | < 5.99 | 0.032 | > 7.70 | 0.967 | < 5.59
3 | CAL-72 (osteosarcoma, adherent) | 0.255 | 9.87 | 0.975 | < 6.00 | 0.534 | 6.70 | 0.832 | 4.79 | 0.984 | < 6.89 | 0.903 | < 5.00 | 0.975 | < 5.70 | 0.984 | < 4.70 | 0.981 | < 5.00 | 0.983 | < 5.99 | 0.283 | 7.16 | 0.968 | < 5.59
4 | CAL-78 (chondrosarcoma, adherent) | 0.86 | < 7.90 | 0.98 | < 6.00 | 0.864 | < 5.59 | 0.832 | 4.81 | 0.975 | < 6.89 | 0.911 | < 5.00 | 0.941 | < 5.70 | 0.985 | < 4.70 | 0.975 | < 5.00 | 0.973 | < 5.99 | 0.335 | 6.98 | 0.859 | < 5.59
5 | CAL-85-1 (breast, adherent) | 0.759 | 8.25 | 0.974 | < 6.00 | 0.383 | 7.16 | 0.64 | 5.47 | 0.747 | 7.29 | 0.935 | < 5.00 | 0.974 | < 5.70 | 0.791 | 4.92 | 0.968 | < 5.00 | 0.94 | < 5.99 | 0.253 | 7.30 | 0.723 | 6.08
6 | CAPAN-1 (pancreas, adherent) | 0.877 | < 7.90 |  |  | 0.859 | 5.60 | 0.695 | 5.33 | 0.97 | < 6.89 | 0.965 | < 5.00 | 0.949 | < 5.70 | 0.955 | < 4.70 | 0.946 | < 5.00 | 0.981 | < 5.99 | 0.171 | 7.55 | 0.887 | < 5.59
7 | CCF-STTG1 (glioma, adherent) | 0.873 | 7.91 | 0.971 | < 6.00 | 0.954 | < 5.59 | 0.988 | < 4.70 | 0.952 | < 6.89 | 0.93 | < 5.00 | 0.896 | < 5.70 | 0.988 | < 4.70 | 0.975 | < 5.00 | 0.987 | < 5.99 | 0.782 | 5.67 | 0.972 | < 5.59
8 | CCK-81 (large intestine, adherent) | 0.988 | < 7.90 | 0.944 | < 6.00 | 0.635 | 6.43 | 0.337 | 6.34 | 0.598 | 7.84 | 0.862 | 5.11 | 0.99 | < 5.70 | 0.909 | < 4.70 | 0.99 | < 5.00 | 0.99 | < 5.99 | 0.902 | < 5.29 | 0.848 | 5.76
9 | CHP-212 (neuroblastoma, adherent) | 0.84 | 8.12 | 0.987 | < 6.00 | 0.446 | 6.94 | 0.13 | 7.02 | 0.927 | < 6.89 | 0.834 | 5.24 | 0.983 | < 5.70 | 0.975 | < 4.70 | 0.974 | < 5.00 | 0.98 | < 5.99 | 0.8 | 5.65 | 0.928 | < 5.59
10 | CHSA0108 (chondrosarcoma, adherent) | 0.827 | 8.03 | 0.979 | < 6.00 | 0.782 | 5.90 | 0.201 | 6.86 | 0.982 | < 6.89 | 0.867 | < 5.00 | 0.98 | < 5.70 | 0.857 | < 4.70 | 0.978 | < 5.00 | 0.955 | < 5.99 | 0.038 | > 7.70 | 0.903 | < 5.59
11 | CHSA8926 (chondrosarcoma, adherent) | 0.707 | 8.41 | 0.975 | < 6.00 | 0.927 | < 5.59 | 0.831 | < 4.70 | 0.98 | < 6.89 | 0.908 | < 5.00 | 0.848 | < 5.70 | 0.976 | < 4.70 | 0.975 | < 5.00 | 0.912 | < 5.99 | 0.336 | 7.04 | 0.979 | < 5.59

pIC50: −log10 of the molar value. IC50 is the fitted dose that halves viability relative to control wells, and lower means more sensitive; a limit (>, <) means that the fit lies beyond the doses tested. For AUC the same curve is integrated over the 256-fold range of doses and scaled to a fraction; it is 1 without any effect and falls as sensitivity rises. For some of these results: The top dose, if marked as inferred, comes from the curve model; the source does not state it. For some of these results: Drugs with an entry number were screened twice under separate entries, and the two screens often disagree.
